A lower IC50 marks a more sensitive line; fits outside the tested doses are given as limits. The AUC spans the tested range (256-fold, ending at the top dose) of the same fit; it is 1 without any effect and falls as sensitivity rises. For part of these data: The top dose, if marked as inferred, was calculated from the reported fits. For part of these data: Where an entry number is given, a second screen of the drug exists; the two often differ.
Tests used:
Test in all cases: Viability of human cancer cell lines after 72 h of drug (GDSC screen)
Docetaxel = compound: CC(=O)O[C@@]12CO[C@@H]1C[C@H](O)[C@@]1(C)C(=O)[C@H](O)C3=C(C)[C@@H](OC(=O)[C@H](O)[C@@H](NC(=O)OC(C)(C)C)c4ccccc4)C[C@@](O)([C@@H](OC(=O)c4ccccc4)[C@H]21)C3(C)C [Docetaxel]; settings: top dose 0.0125 µM
Protocol: (§1)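 Human cancer cell lines in 384-well plates, medium with 10% serum, drug for 72 h over a 256-fold dose range (nine 2-fold or five 4-fold steps up to the top dose). Adherent lines were fixed and stained with the nucleic acid dye Syto60, suspension lines read with resazurin; signal relative to control wells, capped at 0 and 100%. One two-parameter sigmoid per drug and line, fitted in a mixed model over all curves with the slope shared within a line.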

YM155 = compound: COCC[n+]1c2c(n(Cc3cnccn3)c1C)C(=O)c1ccccc1C2=O [YM155]; settings: top dose 5.12 µM
Protocol: as §1

OSI-906 = compound: C[C@]1(O)C[C@@H](c2nc(-c3ccc4ccc(-c5ccccc5)nc4c3)c3c(N)nccn32)C1 [OSI-906]; settings: top dose 2.56 µM; top dose inferred
Protocol: as §1

JNK Inhibitor VIII = compound: CCOc1nc(NC(=O)Cc2cc(OC)ccc2OC)cc(N)c1C#N [JNK Inhibitor VIII]; settings: top dose 10 µM; top dose inferred
Protocol: as §1

AMG-706 = compound: CC1(C)CNc2cc(NC(=O)c3cccnc3NCc3ccncc3)ccc21 [AMG-706]; settings: top dose 2 µM; top dose inferred
Protocol: as §1

SB-715992 = compound: Cc1ccc(C(=O)N(CCCN)[C@@H](c2nc3cc(Cl)ccc3c(=O)n2Cc2ccccc2)C(C)C)cc1 [SB-715992]; settings: top dose 0.128 µM; top dose inferred
Protocol: as §1

FTI-277 = compound: COC(=O)[C@H](CCSC)NC(=O)c1ccc(NC[C@@H](N)CS)cc1-c1ccccc1 [FTI-277]; settings: top dose 1.024 µM; top dose inferred
Protocol: as §1

NSC-207895 = compound: CN1CCN(c2ccc([N+](=O)[O-])c3no[n+]([O-])c23)CC1 [NSC-207895]; settings: top dose 20 µM; top dose inferred
Protocol: as §1

Cyclopamine = compound: CC1=C2C[C@H]3[C@@H](CC=C4C[C@@H](O)CC[C@@]43C)[C@@H]2CC[C@]12O[C@@H]1C[C@H](C)CN[C@H]1[C@H]2C [Cyclopamine]; settings: top dose 16 µM; top dose inferred
Protocol: as §1

CGP-60474 = compound: OCCCNc1cc(-c2ccnc(Nc3cccc(Cl)c3)n2)ccn1 [CGP-60474]; settings: top dose 0.256 µM; top dose inferred
Protocol: as §1

JQ1 = compound: Cc1sc2c(c1C)C(c1ccc(Cl)cc1)=N[C@@H](CC(=O)OC(C)(C)C)c1nnc(C)n1-2 [JQ1]
Protocol: as §1

JNJ-26854165 = compound: c1ccc2c(CCNc3ccc(Nc4ccncc4)cc3)c[nH]c2c1 [JNJ-26854165]; settings: top dose 10 µM
Protocol: as §1

Belinostat = compound: O=C(/C=C/c1cccc(S(=O)(=O)Nc2ccccc2)c1)NO [Belinostat]; settings: top dose 20 µM; top dose inferred
Protocol: as §1

[1] = top dose 1 µM, screen: GDSC drug entry 1218, top dose inferred
[2] = top dose 2.56 µM, screen: GDSC drug entry 163

Cell Line	AUC (Docetaxel)	IC50 (Docetaxel)	AUC (YM155)	IC50 (YM155)	AUC (OSI-906)	IC50 (OSI-906)	AUC (JNK Inhibitor VIII)	IC50 (JNK Inhibitor VIII)	AUC (AMG-706)	IC50 (AMG-706)	AUC (SB-715992)	IC50 (SB-715992)	AUC (FTI-277)	IC50 (FTI-277)	AUC (NSC-207895)	IC50 (NSC-207895)	AUC (Cyclopamine)	IC50 (Cyclopamine)	AUC (CGP-60474)	IC50 (CGP-60474)	AUC (JQ1; [1])	IC50 (JQ1; [1])	AUC (JQ1; [2])	IC50 (JQ1; [2])	AUC (JNJ-26854165)	IC50 (JNJ-26854165)	AUC (Belinostat)	IC50 (Belinostat)
SU-DHL-6 (B-cell lymphoma, suspension)	0.743	0.00308 µM	0.008	< 0.02 µM	0.989	> 2.56 µM	0.995	> 10 µM	0.995	> 2 µM	0.521	0.00901 µM	0.995	> 1.02 µM	0.903	14.1 µM	0.871	8.89 µM	0.556	0.0218 µM	0.913	0.772 µM	0.593	0.269 µM	0.886	6.21 µM	0.058	< 0.0781 µM
SUP-B15 (lymphoblastic leukaemia, suspension)	0.922	> 0.0125 µM	0.022	< 0.02 µM	0.986	> 2.56 µM	0.983	> 10 µM	0.986	> 2 µM	0.469	0.00661 µM	0.946	> 1.02 µM	0.904	> 20 µM	0.977	> 16 µM	0.712	0.0616 µM	–	–	0.554	0.223 µM	0.723	2.59 µM	0.226	0.207 µM
SUP-HD1 (Hodgkin lymphoma, suspension)	0.945	> 0.0125 µM	0.063	< 0.02 µM	0.982	> 2.56 µM	0.97	> 10 µM	0.985	> 2 µM	0.747	0.0391 µM	0.983	> 1.02 µM	0.804	9.47 µM	0.974	> 16 µM	0.615	0.0326 µM	0.986	> 1 µM	0.782	1.02 µM	0.962	> 10 µM	0.274	0.296 µM
SUP-T1 (T-cell lymphoblastic leukaemia, suspension)	0.99	> 0.0125 µM	0.022	< 0.02 µM	0.919	> 2.56 µM	0.985	> 10 µM	0.987	> 2 µM	0.753	0.0393 µM	0.975	> 1.02 µM	0.866	15.2 µM	0.985	> 16 µM	0.989	> 0.256 µM	0.916	> 1 µM	0.556	0.224 µM	0.976	> 10 µM	0.24	0.243 µM
TE-6 (oesophagus, adherent)	0.865	> 0.0125 µM	0.421	0.187 µM	0.986	> 2.56 µM	0.985	> 10 µM	0.967	> 2 µM	0.985	> 0.128 µM	0.986	> 1.02 µM	0.932	> 20 µM	0.983	> 16 µM	0.885	> 0.256 µM	0.985	> 1 µM	0.86	> 2.56 µM	0.896	> 10 µM	0.985	> 20 µM

— the supplement of paper PMC4967469
